Assay results reported in paper PMC4336329 (PLoS ONE, 2015).
Out of some 310,000 compounds screened, about 14,000 (4.5%) showed an effect of 50% or more. The effect is printed as a negative number. The list shows a part of the results.

Target: human ether-à-go-go-related gene (hERG) potassium channel (human, UniProt Q12809)
Test: primary screen, population patch clamp on CHO cells stably expressing hERG
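Note: peak tail current of the secondary pulse compared with the same well before compound.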

Chain of human ether-à-go-go-related gene (hERG) potassium channel (Q12809 whole entry, looked up): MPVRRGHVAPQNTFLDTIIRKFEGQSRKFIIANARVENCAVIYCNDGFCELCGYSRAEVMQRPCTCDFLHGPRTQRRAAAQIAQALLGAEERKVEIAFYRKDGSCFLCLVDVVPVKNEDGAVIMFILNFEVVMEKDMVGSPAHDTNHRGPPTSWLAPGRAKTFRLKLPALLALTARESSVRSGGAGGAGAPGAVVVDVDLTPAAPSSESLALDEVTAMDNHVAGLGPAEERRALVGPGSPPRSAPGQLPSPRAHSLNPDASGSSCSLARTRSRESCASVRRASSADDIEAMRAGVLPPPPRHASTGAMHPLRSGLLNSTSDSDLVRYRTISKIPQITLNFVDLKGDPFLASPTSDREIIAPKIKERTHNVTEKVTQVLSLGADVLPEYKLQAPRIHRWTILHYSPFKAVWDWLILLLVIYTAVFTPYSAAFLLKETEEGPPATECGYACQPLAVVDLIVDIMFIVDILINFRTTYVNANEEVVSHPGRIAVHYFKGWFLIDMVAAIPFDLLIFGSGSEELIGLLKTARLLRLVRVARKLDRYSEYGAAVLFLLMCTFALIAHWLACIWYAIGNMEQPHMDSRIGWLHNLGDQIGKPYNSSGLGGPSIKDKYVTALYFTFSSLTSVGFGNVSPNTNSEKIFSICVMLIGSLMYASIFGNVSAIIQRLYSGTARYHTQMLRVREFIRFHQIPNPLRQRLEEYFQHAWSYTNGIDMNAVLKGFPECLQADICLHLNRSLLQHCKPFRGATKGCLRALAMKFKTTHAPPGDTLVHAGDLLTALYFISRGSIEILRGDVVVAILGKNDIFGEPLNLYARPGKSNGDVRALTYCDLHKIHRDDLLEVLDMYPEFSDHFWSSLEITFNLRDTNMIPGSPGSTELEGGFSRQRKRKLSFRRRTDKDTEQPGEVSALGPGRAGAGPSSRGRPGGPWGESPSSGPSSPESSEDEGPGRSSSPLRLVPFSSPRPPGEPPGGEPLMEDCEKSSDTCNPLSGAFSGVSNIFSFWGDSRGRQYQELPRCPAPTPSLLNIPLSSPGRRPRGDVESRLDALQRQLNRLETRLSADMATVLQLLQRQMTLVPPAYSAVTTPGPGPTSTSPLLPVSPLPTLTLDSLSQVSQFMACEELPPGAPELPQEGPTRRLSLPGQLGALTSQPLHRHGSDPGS

SMILES	hERG current change (%, negative = inhibition) at 10uM [%]
COc1ccc(NC(=O)CCSc2ccc(F)cc2)cc1	1.71
CCCNC(=O)Cc1ncn[nH]1	2.77
COc1ccc(S(=O)(=O)Nc2ccc(S(=O)(=O)N3CCOCC3)cc2)cc1C	-7.72
CC(=O)OCC1OC(OC(C)=O)C(NC(=O)c2cccnc2)C(OC(C)=O)C1OC(C)=O (stereo not shown)	0.0309
O=S(=O)(c1cc(Cl)ccc1Cl)N1CCN2CCCC2C1 (stereo not shown)	13.3
O=C(CSc1nnc2scc(-c3ccccc3)n12)NCc1ccco1	6.54
O=C(OC1CCCCC1=O)c1cc(Cl)ccc1[N+](=O)[O-] (stereo not shown)	9.46
O=C(NCCCn1ccnc1)c1cc(Br)c(Br)s1	-32.5
CCOC(=O)c1cc(=O)n2nc(-c3ccccc3F)nc2s1	1.85
CCN(CC)c1ccc(CN2CCCCCC2)cc1	-20.4
CC(NS(C)(=O)=O)C(c1cccs1)N1CCN(Cc2ccccc2)CC1 (stereo not shown)	4.84
CC(C)C[C@H](N)c1cn([C@@H](Cc2ccc(O)cc2)C(=O)N2CCNCC2)nn1.Cl	6.42
Cc1ccc(SCC(=O)NC(=O)NC(C)C)c(C)c1	-3.77
C=CCN(CC=C)CCOc1cccc2ccccc12.O=C(O)C(=O)O	17.1
CCCCNC(=O)N(O)C1N(/N=C/c2ccccc2OC)C(=S)SC1(C)C (stereo not shown)	-8.05
Cc1nnc(SCC(=O)Nc2ccc(F)cc2)n(N)c1=O	6.78
COC(=O)c1cccc(NC(=S)N2CCN(c3ccccc3F)CC2)c1	5.71
Cc1ccc(-c2nc3ccccc3c(=O)n2-c2ccncc2)cc1	0.789
CCC(C)C(NC(=O)c1ccc(Cl)cc1)C(=O)O (stereo not shown)	17
COc1ccccc1NC(=O)c1[nH]c(C)c(C(C)=O)c1C	7.16
COc1ccc(NS(=O)(=O)c2cc(NC(=O)Cc3cccs3)ccc2C)cc1	2.08
Cc1cccc(C)c1NC(=S)NCCc1ccc(O)c(O)c1	12.8

SMILES	hERG current change (%, negative = inhibition) at 10uM [%]
c1ccc(Cn2nnc3c(Nc4ccc5c(c4)OCO5)nc(C4CC4)nc32)cc1	1.05
OC(CNCCc1c[nH]c2ccccc12)c1ccccc1 (stereo not shown)	-13.5
CC(=O)Nc1ccc(S(=O)(=O)N(C)CC(=O)N/N=C/c2cccc(O)c2)cc1	17.6
O=S(=O)(/C=C/c1ccccc1)N1CCN(c2ccccc2)CC1	-2.08
CCOc1ccccc1OCC(=O)Nc1nc2ccccc2[nH]1	36.8
COCCOC1CCN(C(=O)c2cc(COc3ccc(F)cc3F)on2)CC1	2.54
Cc1nc(NC(=O)c2oc3ccccc3c2C)sc1C(=O)N(C)C	-4.58
O=C(COc1ccc(C(=O)c2ccccc2)cc1)NCc1ccc(F)cc1	-6.64
COc1ccc(CNc2ncc(-c3ccc(F)cc3)n2C)cc1OC.O=C(O)C(=O)O	-65.2
CC(C)c1cc(C(=O)O)n[nH]1	20.3
C=CCOC(=O)C1=C(C)NC(C)=C(C(=O)OCC=C)C1c1ccco1	-7.11
CCN(CC(=O)Nc1c(F)cccc1F)C(=O)c1cccc(S(=O)(=O)NCc2ccccc2)c1	-15.5
COc1ccc(S(=O)(=O)n2nc(OC(C)=O)cc2N(C(C)=O)C(C)=O)cc1	-3.25
COCCCNc1nc2c(c(=O)n(Cc3ccc(F)cc3)c(=O)n2C)n1C	-11.7
CCCn1c(N)c(N(CCOC)C(=O)c2cc(-c3ccco3)nc3ccccc23)c(=O)[nH]c1=O	14.8
CCOc1ccccc1C(=O)NC(C(=O)OCC(=O)Nc1nnc(-c2ccccc2)o1)C(C)C (stereo not shown)	-24.4
Cc1ccnc(NS(=O)(=O)c2ccc3c(c2)CCO3)c1	12.3
CN1CCN(c2ccccc2NC(=O)c2ccc(N3CCCC3)c([N+](=O)[O-])c2)CC1	-48.5
COc1ccc(C(=O)NCCn2ccc3ccccc32)cc1OC	-2.74
Cc1ccc(CN(C(=O)c2ccccc2[N+](=O)[O-])C2CCS(=O)(=O)C2)o1 (stereo not shown)	13.1
COc1cc(-n2nc(C)c3c2OC(N)=C(C#N)C3c2ccccc2)c(Cl)c(Br)c1O (stereo not shown)	0.576
COc1ccc(/C=C/CN2CCCC(CO)(Cc3cccc(Cl)c3)C2)cc1 (stereo not shown)	-50.8

SMILES	hERG current change (%, negative = inhibition) at 10uM [%]
Cc1cc(NC(=O)CCC(=O)N(CCC(C)C)CC(=O)NCC2CCCO2)no1 (stereo not shown)	11.2
O=C(O)CC(NC(=O)C1CCCCC1)c1cc([N+](=O)[O-])ccc1Cl (stereo not shown)	-0.243
CN(C)P(=NC(=S)c1cccn1C)(N(C)C)N(C)C	16.4
O=C(Cc1ccc(Br)cc1)NCCc1ccccc1	13.2
COc1ccc(/C=N/NC(=S)SC)cc1OC	0.682
COC(=O)Cn1c(=O)c2c(n(Cc3ccccc3)c1=O)N/C(=C/c1ccc(Br)cc1)C2=O	7.03
CC(c1ccccc1)n1c(-c2ccccc2F)n[nH]c1=S (stereo not shown)	-11.9
COc1ccc(CNC(=O)C2CCCN2S(=O)(=O)c2ccc(F)cc2)cc1 (stereo not shown)	-1.3
Cc1ccc(NC(=O)CSc2ncccn2)cc1S(=O)(=O)N1CCCCC1	-27.5
CCOC(=O)CC1ON(C)C(=O)N1c1ccc([N+](=O)[O-])cc1 (stereo not shown)	-6.46
O=S(=O)(NC(=S)Nc1ccccc1)c1ccc(F)cc1	15
COc1ccc(-c2nc(SCC(=O)N3CCCC3)n[nH]2)cc1	14.2
COCCn1c(C(C)C)nc2oc3ccccc3c(=O)c2c1=O	3.05
Cc1ccc(S(=O)(=O)Nc2ccnc(-c3cccnc3)n2)cc1	12.7
CN(C)/C=C(\C(=O)c1ccc(F)cc1F)c1nnnn1-c1ccccc1	21.1
O=C(Nc1ccc(Cc2ccncc2)cc1)c1ccc(Br)o1	-35.8
CCOc1ccc(C2CC(c3cccc(OC)c3)n3nc(N)nc3N2)cc1 (stereo not shown)	7.43
O=C(Cn1nnc(-c2cccc(C(F)(F)F)c2)n1)NNS(=O)(=O)c1cccc(C(F)(F)F)c1	9.57
CC(CCc1ccc(O)cc1)NCc1ccc(Cl)cc1Cl (stereo not shown)	-63.8
CCn1cc(C2=NC(CCSC)CO2)c2ccccc21 (stereo not shown)	-9.46
CCOCC(=O)Nc1nc(C)cc(C)n1	21.1
CCCCn1c(-c2cccs2)nc2oc3ccccc3c(=O)c2c1=O	-14.3

SMILES	hERG current change (%, negative = inhibition) at 10uM [%]
CCc1nnc(NC(=O)c2ccc(-c3ccc(C(C)=O)cc3)o2)s1	3.38
CCCCOC(=O)c1ccc(NC(=S)NC(=O)c2ccco2)cc1	15.6
Cc1ccc(NC(=S)/N=C(\N)Nc2nc(C)c3cc(C)ccc3n2)c(C)c1	3.87
CCOc1ccc(C(=O)C(C)OC(=O)Cn2cnc3c2c(=O)n(C)c(=O)n3C)cc1 (stereo not shown)	-33.2
COc1ccc(/C=N/NC(=O)CC2N=C(Cc3ccccc3)NNC2=O)cc1OC (stereo not shown)	14.5
COc1ccc(C(=O)Nc2cccc(-c3nnc(-c4ccco4)o3)c2)cc1	-37.4
Cc1ccc(C)c(NC(=O)CSc2nnc(CSc3nc(C)cc(C)n3)n2Cc2ccco2)c1	-37.9
CC1CN(CC(=O)N2CCc3[nH]c4ccccc4c3C2)CC(C)O1 (stereo not shown)	10.6
CCN(CC)C(=O)CSc1nc2cc3c(cc2c(=O)n1CCCCCC(=O)NCc1ccc(OC)cc1)OCO3	4.18
O=C1c2ccccc2C(=O)N1CCCCSc1nc2ccccc2o1	-1.97
CN1CCN(c2nc(-c3ccccc3)cc(C(F)(F)F)n2)CC1	-19.1
CCN(CC(=O)NCC(=O)Nc1ccc(Br)cc1C)Cc1ccccc1	4.45
Cc1cccc(C)c1-n1cccc1/C=C1\SC(=S)N(c2cccc(C(=O)O)c2)C1=O	46.6
O=C1CN(C(=O)c2ccc(Cl)c(S(=O)(=O)N3CCc4ccccc43)c2)c2ccccc2N1	-21
OCC1(CCc2ccccc2)CCN(Cc2cc(Cl)ccc2O)CC1	-49.5
O=C(O)c1cccc2c1/C(=N/Nc1ccc([N+](=O)[O-])cc1[N+](=O)[O-])c1ccccc1-2	19.7
O=C(NCc1ccc(Cl)cc1)C1CCCN(C(=O)c2ccc(Cl)cc2)C1 (stereo not shown)	-40.1
COc1ccccc1C1c2[nH]c3ccccc3c2C[C@H]2C(=O)N(C3CCN(Cc4ccccc4)CC3)CC(=O)N12 (stereo partly shown)	-48.7
COc1ccc2[nH]c(=O)c(C3c4cc(OC)c(OC)cc4CCN3C(=O)c3ccco3)cc2c1 (stereo not shown)	-23.8
Cc1ccc(NC(=O)N2CCc3ccccc32)cc1	8.51
Cc1cc(O)cc(=O)n1C	7.94
Cc1nnc(SC(C)C(=O)NCC2CCCO2)n1-c1ccccc1 (stereo not shown)	-6.04
